From PubChem BioAssay AID488969 (Vanderbilt High Throughput Screening Facility, 2010) come the findings set out here.

The structures appear in SMILES notation. The full ranking holds about 110,000 compounds; the median of “z-score” is about -0.1, and the highest 2% start at about 2. The list shows a part of the results. Calls of active or inactive are those of the source.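 How the source made its calls: active means z-score in the third read window above 3 or below -3; inactive means the rest.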

This experiment has as its target Metabotropic glutamate receptor 8 (Rattus norvegicus) (UniProt P70579). The experiment in a line: mGluR8 Gi/Go-coupled signaling modulation – cell-based, rat, thallium flux, HTS, primary screen (AID 488969). The note with it: HEK293 rat mGluR8, GIRK (G protein-gated inwardly rectifying potassium channel) thallium flux, FluoZin2; at 10 µM; stronger effect = higher value; submaximal glutamate (EC20) added with thallium.
Sequence of UniProt P70579 (P70579 whole entry, looked up): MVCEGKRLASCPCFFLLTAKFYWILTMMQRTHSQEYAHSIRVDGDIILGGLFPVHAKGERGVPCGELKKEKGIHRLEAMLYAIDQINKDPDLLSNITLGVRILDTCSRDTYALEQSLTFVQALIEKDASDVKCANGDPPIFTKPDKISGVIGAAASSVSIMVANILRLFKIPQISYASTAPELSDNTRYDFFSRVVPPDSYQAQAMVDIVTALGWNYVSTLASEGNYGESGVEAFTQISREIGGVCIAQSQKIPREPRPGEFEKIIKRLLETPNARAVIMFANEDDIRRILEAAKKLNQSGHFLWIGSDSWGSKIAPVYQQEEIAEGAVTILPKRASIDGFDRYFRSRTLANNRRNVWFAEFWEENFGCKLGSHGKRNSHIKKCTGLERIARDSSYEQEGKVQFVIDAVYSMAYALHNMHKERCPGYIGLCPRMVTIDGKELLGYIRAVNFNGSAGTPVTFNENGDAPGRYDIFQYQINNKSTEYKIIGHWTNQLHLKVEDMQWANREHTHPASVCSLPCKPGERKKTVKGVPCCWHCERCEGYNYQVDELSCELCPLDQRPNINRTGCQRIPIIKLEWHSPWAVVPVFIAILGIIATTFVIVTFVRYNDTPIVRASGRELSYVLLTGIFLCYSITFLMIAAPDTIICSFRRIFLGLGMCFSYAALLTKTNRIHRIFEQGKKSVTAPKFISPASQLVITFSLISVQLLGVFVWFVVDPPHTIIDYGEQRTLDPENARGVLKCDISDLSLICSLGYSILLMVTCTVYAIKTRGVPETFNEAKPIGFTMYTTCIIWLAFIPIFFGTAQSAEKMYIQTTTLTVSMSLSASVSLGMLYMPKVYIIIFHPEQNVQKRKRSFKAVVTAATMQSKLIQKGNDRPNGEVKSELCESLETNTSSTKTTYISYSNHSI
Consider `CCC(Sc1nc2ccccc2o1)C(=O)Nc1nnc(C)s1` (configuration not stated), for which the z-score is -0.41.
With `CSc1ccccc1NC(=O)c1ccncc1`, the z-score is -0.0118.
The value for `CC(=O)Nc1nc(-c2ccccc2)c(-c2ccccc2)o1` was -0.185.
With `CCCCNC(=O)c1cc([N+](=O)[O-])[nH]n1` the figure was 0.198; with `CCC(=O)Nc1cccc(-c2cnc3ccccc3n2)c1`, -0.216.
The value for `CCOc1cc(/C=C2\N=C(SC)SC2=O)cc([N+](=O)[O-])c1OC(C)=O` was -1.23; that for `O=C(CO/N=C1\CCCc2nonc21)Nc1ccc(Br)cc1` was -0.00511; that for `Cc1ccc(-c2cc(C(F)(F)F)n3nc(C(=O)NCCCn4ccnc4)cc3n2)cc1C` was -0.0956.
Turning to `CSc1ccccc1C(=O)Nc1cccc(C(C)=O)c1`, the z-score is active: 3.03.
The value for `Cc1c(Cl)c([N+](=O)[O-])nn1CCCC(=O)Nc1sc2c(c1C#N)CCC2` was -0.0641; that for `COc1ccc(CN(C)C2c3ccccc3-c3ccccc32)cc1` was 0.198.
With `COc1ccc2c(c1)c(=O)oc1c(C)c3occ(C)c3cc12` the figure was 0.586; with `CC(C)CN(Cc1c(O)ccc2c3c(c(=O)oc12)CCC3)CC(C)C`, -0.353.
The value for `CC(C)C(NS(=O)(=O)c1ccc2c(c1)oc(=O)n2C)C(=O)N1CCN(C2CCCCC2)CC1` (configuration not stated) was 1.75; that for `N=c1sccn1CC(=O)Nc1ccc(S(=O)(=O)N2CCOCC2)cc1` was 2.19; that for `COc1cccc(N(C(=O)c2ccn[nH]2)C2(C(=O)Nc3c(C)cccc3C)CCCCC2)c1` was -0.274.
Take `COc1ccc(C(C)(C)C)cc1NC(=O)COC(=O)c1cnc(C)cn1`: the z-score is -0.58.
The value for `CCOC(=O)C1=NNC(C(=O)c2ccc(C)cc2)C1c1ccc(C)cc1` (configuration not stated) was -0.512; that for `Cc1ccc(Cl)cc1N1CCN(CC(=O)Nc2ccc3[nH]c(=O)[nH]c3c2)CC1` was -0.296; that for `COc1cc(C(=O)Nc2ccc(S(=O)(=O)NC(C)(C)C)cc2)cc(OC)c1OC` was -0.258.
The value for `O=C(NC1CCCCC1)NC1CC2CCC(C1)N2Cc1nnnn1Cc1ccc2c(c1)OCO2` (configuration not stated) was -0.0503; that for `COc1ccccc1-n1cnc2cc(NC(C)=O)ccc21` was -0.155; that for `COc1ccc(C)cc1S(=O)(=O)N(CC(=O)O)c1ccc(C)cc1` was 0.667.
The value for `N#Cc1cc2c(nc1SCC(=O)N1CCCCC1)CCCC2` was 0.0183; that for `N#CCCn1c(=S)[nH]c2ccccc21` was -0.232; that for `O=C(NC1CCCCC1)N1CCN(C(=O)c2ccco2)CC1` was 0.0358.
Turning to `CS(=O)(=O)N(CC(=O)NCc1ccc2c(c1)OCO2)Cc1ccc(Cl)cc1`, the z-score is -0.196.
With `Cc1ccccc1NC(=O)c1ccc(N/N=C/c2ccccc2O)c([N+](=O)[O-])c1` the figure was 0.382; with `CN1C(=O)N(C)C2C1N(C)S(=O)(=O)N2C` (configuration not stated), -0.0354.
With `Cc1ccc2nc(Cl)c(C3CC(c4cccs4)=NN3S(C)(=O)=O)cc2c1` (configuration not stated) the figure was 0.644.
With `Cc1ccc(C(O)c2cccnc2)o1` (configuration not stated) the figure was 0.0139.
With `O=c1cc(O)c2c(=O)[nH]c(=O)n(-c3ccccc3)c2[nH]1`, the z-score was -0.269.
With `CS(=O)(=O)N(CC(=O)N1CCOCC1)c1ccc2c(c1)OCO2` the figure was -0.0813; with `COc1ccc(C(c2nnnn2CCc2ccccc2)N2CCN(C3CCCC3)CC2)cc1` (configuration not stated), 0.507; with `CCOc1ccc(NC(=O)CSc2nnc(-c3ccccn3)n2C)cc1`, -0.36.
With `COc1ccc(CCNC(=O)C2CCN(S(C)(=O)=O)CC2)cc1OC` the figure was -0.183; with `COC(=O)c1[nH]c2ccccc2c1NS(=O)(=O)c1ccc(OC)cc1OC`, 0.156; with `CCn1c(=O)[nH]c(=O)c2c(N)c(C(=O)c3ccccc3OC)sc21`, -0.704.
With `COc1ccc(N2CCN(C(=O)CN3C(=O)C4CC=CCC4C3=O)CC2)cc1` (configuration not stated) the figure was 0.292; with `O=C(N1CCCCCC1)N1CCN(S(=O)(=O)c2ccccc2)CC1`, -0.149.
As for `Oc1ccc(Nc2nc(N3CCCC3)c3ccccc3n2)cc1`, the z-score stood at 0.808.
The value for `COc1ccc(C2CC(C(F)(F)F)n3nc(C(=O)O)c(Br)c3N2)cc1` (configuration not stated) was 0.00244; that for `CN(C)S(=O)(=O)c1ccc2c(c1)c(=O)c(C(=O)N1CCN(c3ccccn3)CC1)cn2C` was -0.186; that for `Fc1ccccc1/C=C/c1ccc2ccccc2n1` was -0.208.
For the molecule `COc1cc(NC(=O)CSc2nccc(C)n2)c(C)cc1[N+](=O)[O-]`, the z-score is -2.71.
The value for `Cc1ccc(-n2nc(-c3cccnc3)cc2C(=O)N2CCOCC2)c(C)c1` was 0.372.
`Cc1ccc2c(c1)-c1c(ssc1=S)C(C)(C)N2C(=O)CSc1nncn1C` showed a z-score of 0.393.
The value for `CCS(=O)(=O)NCCc1csc(C)n1` was -0.505; that for `CCOC(=O)C1CCN(CC(=O)Nc2cc(C)nn2-c2nc3ccccc3s2)CC1` was 0.133.
With `Clc1ccc(Cn2ncc3c(N4CCOCC4)ncnc32)cc1` the figure was -0.566; with `Cc1ccc(C(=O)Oc2cccc(NC(=O)c3cccs3)c2)cc1S(=O)(=O)N1CCOCC1`, -0.722; with `CCOC(=O)CSc1ncc(OC)c(=O)[nH]1`, 0.073.
Take `COCCCNCCCOc1ccc(Cl)cc1Br`: the z-score was active: 3.75.
The value for `Cc1[nH]c2ccccc2c1/C=C/c1cc[n+](C)cc1` was -0.934; that for `O=C(c1cccc([N+](=O)[O-])c1)n1nc(-c2ccccc2)nc1NCc1ccccc1` was -0.377; that for `C=CCOc1ccc2c(c1)c(S(=O)(=O)c1ccc(C)cc1)cn2COC` was -0.417.
With `O=C(CSCc1ccco1)c1ccc(Cl)s1` the figure was -0.544; with `CCCOC(=O)c1ccc(NC(=O)COC)cc1`, -0.449; with `CCOCC(=O)Nc1ccc2c(c1)OCCO2`, 0.168.
With `COc1ccccc1-n1cnc2cc(C(=O)NC3CCCC3)ccc21` the figure was -0.0776; with `CCCCN1CNC(=S)N(Cc2ccccc2)C1`, -0.0503; with `CC1CC(C)CN(c2nc(NCc3ccco3)nc(N)c2[N+](=O)[O-])C1` (configuration not stated), 0.544.
Molecule `Cc1ccc(C2CC(c3ccco3)n3nc(N)nc3N2)cc1` (configuration not stated) showed a z-score of 0.519.
With `CCc1ccc(Nc2nc(N)nc(CSc3nnnn3-c3ccccc3)n2)cc1` the figure was 0.133.
With `Cc1cccc(NC(=O)c2cc(S(=O)(=O)c3ccccc3)ccc2Cl)c1` the figure was 0.286; with `CCOC(=O)C1=C(C)NC(=O)NC1c1ccc(N(CC)CC)cc1` (configuration not stated), -0.0787; with `Cc1ccc(-c2cc(C(=O)N/N=C/c3ccco3)n[nH]2)s1`, -0.308.
For `CCCCOC(=O)Nc1ccc(C)c(Cl)c1`, the z-score was -0.315.
The value for `CC(C)CC1NC(=S)N(C2CCCCC2)C1=O` (configuration not stated) was -0.106.
The value for `COc1cnc(-c2ccccn2)nc1Sc1ccc(Cl)cc1` was -0.328; that for `O=C(NCC(c1cccs1)N1CCOCC1)c1ccco1` (configuration not stated) was 0.17.
Molecule `COC(=O)C1=CN(C(C)C)C=C(C(=O)OC)C1c1cc(Br)c(OC)c(OC)c1` gave a z-score of 0.22.
